# Measurements: the supplement of paper PMC3334620
# Over roughly 33,000 sequences, “E-score (-0.5 to 0.5)” has its median near -0.053; the highest 2% begin near 0.37. Some of the results follow.
# Biological target: Hap1 (UniProt P0CE41)
# Experiment: PBM E-score (8-mer binding enrichment) (E-score (-0.5 to 0.5)); higher = stronger / more preferred TF binding; most listed sequences are background and not binding sites
# Conditions: protein concentration: 200 nM; construct: GST-DNA-binding domain
# Procedure, shortened: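 E-scores (a modified Wilcoxon-Mann-Whitney statistic) were assigned by the Universal PBM Analysis Suite to every ungapped eight-base word pooled with its reverse complement. The input came from universal all-10-mer Agilent arrays made double-stranded by primer extension and probed with GST-tagged yeast transcription factors at about 100-200 nM. Fluorescent anti-GST detected bound protein, and masliner normalised the scans.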
# Chain of UniProt P0CE41 (P0CE41 whole entry): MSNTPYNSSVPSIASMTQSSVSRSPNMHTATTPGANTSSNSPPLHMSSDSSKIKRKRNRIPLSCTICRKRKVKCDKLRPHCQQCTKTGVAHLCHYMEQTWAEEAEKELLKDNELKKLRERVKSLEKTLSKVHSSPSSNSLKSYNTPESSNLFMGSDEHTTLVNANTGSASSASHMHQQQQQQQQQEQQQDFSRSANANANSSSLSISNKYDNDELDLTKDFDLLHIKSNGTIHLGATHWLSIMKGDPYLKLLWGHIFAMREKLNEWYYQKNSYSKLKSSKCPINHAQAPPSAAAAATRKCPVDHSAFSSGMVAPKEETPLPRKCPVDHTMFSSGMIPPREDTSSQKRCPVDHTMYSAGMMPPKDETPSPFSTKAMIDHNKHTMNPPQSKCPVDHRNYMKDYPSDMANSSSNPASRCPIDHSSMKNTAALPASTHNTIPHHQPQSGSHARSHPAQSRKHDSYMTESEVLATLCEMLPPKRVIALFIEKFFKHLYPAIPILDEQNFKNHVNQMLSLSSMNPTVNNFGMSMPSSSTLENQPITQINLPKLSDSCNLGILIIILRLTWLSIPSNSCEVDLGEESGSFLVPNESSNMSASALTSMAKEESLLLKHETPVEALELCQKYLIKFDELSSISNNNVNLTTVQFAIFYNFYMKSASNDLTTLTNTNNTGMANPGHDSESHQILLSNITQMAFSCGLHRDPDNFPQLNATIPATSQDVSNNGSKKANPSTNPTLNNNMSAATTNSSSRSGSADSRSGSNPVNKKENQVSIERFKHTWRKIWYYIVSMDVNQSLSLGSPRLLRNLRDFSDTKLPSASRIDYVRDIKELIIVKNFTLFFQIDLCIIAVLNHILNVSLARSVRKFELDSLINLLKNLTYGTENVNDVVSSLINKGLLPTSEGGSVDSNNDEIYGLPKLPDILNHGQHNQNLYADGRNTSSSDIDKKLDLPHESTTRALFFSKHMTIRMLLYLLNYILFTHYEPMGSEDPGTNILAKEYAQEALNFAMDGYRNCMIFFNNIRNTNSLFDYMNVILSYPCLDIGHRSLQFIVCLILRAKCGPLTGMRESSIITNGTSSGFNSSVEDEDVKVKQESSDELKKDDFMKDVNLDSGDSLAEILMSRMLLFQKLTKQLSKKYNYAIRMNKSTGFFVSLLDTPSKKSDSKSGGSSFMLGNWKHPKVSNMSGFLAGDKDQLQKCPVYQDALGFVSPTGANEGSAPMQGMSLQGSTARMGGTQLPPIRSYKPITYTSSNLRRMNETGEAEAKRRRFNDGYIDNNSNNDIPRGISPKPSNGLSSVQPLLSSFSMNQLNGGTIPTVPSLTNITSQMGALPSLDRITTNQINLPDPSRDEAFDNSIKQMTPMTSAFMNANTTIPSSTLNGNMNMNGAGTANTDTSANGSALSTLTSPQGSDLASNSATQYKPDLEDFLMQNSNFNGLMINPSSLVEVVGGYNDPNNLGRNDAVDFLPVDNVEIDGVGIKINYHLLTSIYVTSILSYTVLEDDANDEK
row,Sequence,PBM E-score
1,CGCGATAG,0.2
2,AAACGCAC,-0.0629
3,GAGAACTC,-0.0497
4,AACAGCCC,0.0167
5,ATCGTACG,0.0112
6,GATCTCAC,-0.0618
7,ATCTATGC,-0.128
8,TCTCGTCA,-0.12
9,CCGACTAA,0.253
10,AAGATCAA,-0.203
11,GACACTAA,0.0222
12,AATAGCCA,-0.249
13,GTTGCAAA,-0.0687
14,AATTAATC,-0.0343
15,CTGCATGC,-0.0792
16,AGGGTCTC,-0.204
17,CTCCGCGC,0.294
18,AAACGCGC,0.0907
19,CGTGTGCA,-0.102
20,CACCCGTC,0.146
21,CAAGTGGG,-0.132
22,CAACGGCC,0.0466

row,Sequence,PBM E-score
1,AAGTGTAA,-0.0967
2,ACTCACTG,-0.259
3,AACAACAA,-0.209
4,AAAGTCAT,-0.148
5,AGCCATTG,-0.333
6,AGATCCAC,0.0171
7,AATGTGAC,-0.128
8,GAGCGGAA,0.248
9,CACGAGGG,-0.0112
10,AGGACTAA,-0.0745
11,ACAGGTAG,-0.256
12,AGCAAGGA,-0.198
13,ATCAGACG,-0.1
14,ACTGCGGG,0.0676
15,TGGAGCAA,-0.195
16,AGAATAGC,-0.0642
17,ATCCTCGG,0.279
18,AGTCGTAC,-0.184
19,CCCAATAA,-0.0706
20,GCGTTGAC,-0.207
21,ACGAGGGG,-0.16
22,TACTGCTA,-0.0974

row,Sequence,PBM E-score
1,ATCTGCTC,-0.132
2,AAACACAT,-0.163
3,AGGGCCCT,-0.142
4,AAATGACT,-0.237
5,GCAGGTTA,0.0705
6,AATGCTGA,-0.19
7,GCCGCTGA,0.111
8,GACCCTCA,-0.151
9,GTATAAGA,-0.0203
10,CGAAGTCC,0.34
11,ATATACGC,-0.0579
12,TGCCCGCA,0.146
13,AGCTTACG,-0.168
14,CCCACCTC,-0.0704
15,GAGACAGC,-0.023
16,CCAAGTCG,-0.0324
17,GCAGATAA,0.184
18,AATTATGA,0.0985
19,CGAACTGA,0.00885
20,CGGAGACG,0.236
21,CGCCACTA,-0.0208
22,TCCACAGA,-0.15

row,Sequence,PBM E-score
1,GAACTCCA,-0.0677
2,CGCCTAAG,-0.116
3,ATCGTGCG,0.0258
4,AGTTGTAT,-0.0505
5,ATTACGGG,0.224
6,GAGCGTTA,-0.121
7,ATTGGCAC,-0.21
8,CTACGGAC,0.278
9,GATACGGA,0.329
10,TAAGATCA,-0.179
11,GCAAGCCA,-0.171
12,GAATATGC,0.0672
13,AGACACCA,-0.0418
14,ACCCCGCA,0.189
15,CCTGTTGA,-0.219
16,AGAGTACA,-0.15
17,AGGCAAAT,0.0779
18,AAAAACAG,-0.179
19,ATGCATGC,-0.138
20,TCGACCCA,-0.221
21,AACGGAAC,0.326
22,AGCAATAA,-0.171

row,Sequence,PBM E-score
1,GACTTGCA,-0.00655
2,AGATCGCT,0.0138
3,CTCGCTAA,0.0842
4,ATTCAAAT,-0.0286
5,AGTGCTGG,-0.185
6,GCCAGACA,-0.0406
7,GGTGTCAC,0.0348
8,ATACCGGG,0.416
9,CTACTGAC,-0.164
10,ACAAACTG,-0.159
11,AGGCGAGG,-0.0675
12,CGGGAAGA,0.282
13,ATGTTATC,0.0167
14,ATTCTCTG,-0.185
15,GAGCTATA,-0.179
16,AGTTATCA,-0.0683
17,CGCCTCCG,0.26
18,AGAACTAT,-0.062
19,ACCCGAGC,0.366
20,TGTATCAA,-0.114
21,CAGCAATG,-0.362
22,AGACGGTG,-0.0646
